Among the data in the supplement of paper PMC4604168 (melanoma cell lines) are cell count values, retold here.

Test systems include WM115; WM1716; WM1745; WM3526; WM3619; WM451Lu.
Common to all, as to assay: cell count relative to DMSO control; melanoma cells; higher = more viable cells
Holding throughout (conditions): library dose: low library concentration; 72 h

The list shows a part of the results. Single values are uncertain, as repeats are few or missing.
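Also: cell number obtained by counting DAPI-stained nuclei in high-throughput microscope images with image analysis software, screen run in 1,536-well plates.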

Consider `C[C@@H](Oc1cc(-c2cnn(C3CCNCC3)c2)cnc1N)c1c(Cl)ccc(F)c1Cl` [Crizotinib] + O=C(O)[C@@H]1[O][Sb](=[O])([O][Sb]2(=[O])[O][C@H]([C@H](O)CO)[C@H](O)[C@H](C(=O)O)[O]2)[O][C@H]([C@H](O)CO)[C@@H]1O [stibogluconate] (first compound 0.2 µM, partner dose 2 µM), for which the cell count in the test with WM115 is 105%; with WM1716 it was 114%; with WM1745 it was 112%; in the test on WM3526, 94.4%; in the test on WM3619 it was 96.5%; in the test with WM451Lu it was 98.2%.

As for `C[C@@H](Oc1cc(-c2cnn(C3CCNCC3)c2)cnc1N)c1c(Cl)ccc(F)c1Cl` [Crizotinib] + CCN(CC)CCCCNc1ncc2cc(-c3cc(OC)cc(OC)c3)c(NC(=O)NC(C)(C)C)nc2n1 [PD173074] (first compound 0.2 µM, partner dose 0.1 µM), the cell count with WM115 is 91.5%; in the test with WM1716, 116%; with WM1745 it was 79.9%; in the test on WM3526 it was 97.5%; with WM3619, 92.3%; in the test on WM451Lu, 95.5%.

Consider `CS(=O)(=O)CCNCc1ccc(-c2ccc3ncnc(Nc4ccc(OCc5cccc(F)c5)c(Cl)c4)c3c2)o1` [lapatinib] + COc1ccc(COc2ccc(Cc3cnc(N)nc3N)cc2OC)cc1 [GW2580] (first compound 0.8 µM, partner dose 1 µM), for which the cell count in the test with WM115 is 99.9%; with WM1716, 113%; in the test with WM1745, 87.7%; in the test with WM3526 it was 80.7%; in the test on WM3619 it was 114%; in the test with WM451Lu, 99.9%.

Consider `CNC(=O)c1cc(Oc2ccc(NC(=O)Nc3ccc(Cl)c(C(F)(F)F)c3)cc2)ccn1` [sorafenib] + CS(=O)(=O)CCNCc1ccc(-c2ccc3ncnc(Nc4ccc(OCc5cccc(F)c5)c(Cl)c4)c3c2)o1 [lapatinib] (first compound 0.4 µM, partner dose 0.8 µM), for which the cell count with WM115 is 105%; in the test on WM1716, 98.8%; in the test with WM1745, 104%; in the test on WM3526 it was 86.6%; in the test on WM3619, 90.9%; in the test on WM451Lu, 99.4%.

For `C=CCNC1=C2C[C@@H](C)C[C@H](OC)[C@H](O)[C@@H](C)/C=C(\C)[C@H](OC(N)=O)[C@@H](OC)/C=C\C=C(/C)C(=O)NC(=CC1=O)C2=O` [Tanespimycin] + CCCCCCCCCCCC1=C(O)C(=O)C=C(O)C1=O [Embelin] (first compound 0.002 µM, partner dose 1.2 µM), the cell count in the test with WM115 was 93.3%; in the test with WM1716 it was 93.7%; in the test on WM1745 it was 102%; in the test with WM3526, 73.4%; in the test with WM3619, 111%; in the test with WM451Lu it was 37.5%.

Turning to `C[C@@H](Oc1cc(-c2cnn(C3CCNCC3)c2)cnc1N)c1c(Cl)ccc(F)c1Cl` [Crizotinib] + NC(=O)Nc1cc(-c2cccc(F)c2)sc1C(=O)N[C@H]1CCCNC1 [AZD7762] (first compound 0.2 µM, partner dose 0.02 µM), the cell count in the test with WM115 was 74.7%; in the test on WM1716, 112%; in the test with WM1745, 108%; in the test with WM3526, 88.9%; in the test with WM3619, 55.9%; with WM451Lu, 92.9%.

`C=CCNC1=C2C[C@@H](C)C[C@H](OC)[C@H](O)[C@@H](C)/C=C(\C)[C@H](OC(N)=O)[C@@H](OC)/C=C\C=C(/C)C(=O)NC(=CC1=O)C2=O` [Tanespimycin] + CCN(CC)CCCCNc1ncc2cc(-c3cc(OC)cc(OC)c3)c(NC(=O)NC(C)(C)C)nc2n1 [PD173074] (first compound 0.002 µM, partner dose 0.1 µM): the cell count in the test with WM115 worked out at 92.4%; in the test with WM1716 it was 86.9%; in the test on WM1745, 99.7%; in the test on WM3526, 109%; with WM3619, 95.2%; in the test on WM451Lu, 106%.

In the case of `C[C@@H](Oc1cc(-c2cnn(C3CCNCC3)c2)cnc1N)c1c(Cl)ccc(F)c1Cl` [Crizotinib] + COc1cc(N2CCC(N3CCN(C)CC3)CC2)ccc1Nc1ncc(Cl)c(Nc2ccccc2S(=O)(=O)C(C)C)n1 [NVP-TAE684] (first compound 0.2 µM, partner dose 0.08 µM), the cell count with WM115 is 88.2%; in the test with WM1716 it was 122%; in the test with WM1745, 87.8%; in the test on WM3526, 90.8%; in the test on WM3619 it was 120%; with WM451Lu, 124%.

On to `C[C@@H](Oc1cc(-c2cnn(C3CCNCC3)c2)cnc1N)c1c(Cl)ccc(F)c1Cl` [Crizotinib] + CCCCCCCCCCCC1=C(O)C(=O)C=C(O)C1=O [Embelin] (first compound 0.2 µM, partner dose 1.2 µM), for which the cell count in the test on WM115 came out at 97.5%; in the test on WM1716 it was 113%; in the test on WM1745 it was 105%; in the test on WM3526, 111%; in the test with WM3619 it was 101%; in the test with WM451Lu, 84.1%.

On to `CN1CCN(c2ccc3nc(-c4c(N)c5c(F)cccc5[nH]c4=O)[nH]c3c2)CC1` [Dovitinib] + COC(=O)c1sccc1S(=O)(=O)Nc1ccc(Nc2ccccc2)cc1OC [GSK0660] (first compound 0.1 µM, partner dose 1 µM), for which the cell count came to 79.5% in the test with WM115; 139% with WM1716; 102% in the test on WM1745; 91.3% in the test on WM3526; 122% with WM3619; 94.4% in the test with WM451Lu.

For the compound `C=CCNC1=C2C[C@@H](C)C[C@H](OC)[C@H](O)[C@@H](C)/C=C(\C)[C@H](OC(N)=O)[C@@H](OC)/C=C\C=C(/C)C(=O)NC(=CC1=O)C2=O` [Tanespimycin] + Cc1ccc(NC(=O)c2cccc(N(C)C)c2)cc1NC(=O)c1ccc(O)cc1 [ZM336372] (first compound 0.002 µM, partner dose 2 µM), the cell count in the test with WM115 amounted to 123%; in the test on WM1716, 119%; in the test with WM1745 it was 91.6%; in the test on WM3526 it was 112%; in the test on WM3619, 113%; in the test with WM451Lu, 107%.

Consider `C[C@@H](Oc1cc(-c2cnn(C3CCNCC3)c2)cnc1N)c1c(Cl)ccc(F)c1Cl` [Crizotinib] + COc1cc(Nc2ncc(F)c(Nc3ccc4c(n3)NC(=O)C(C)(C)O4)n2)cc(OC)c1OC [Tamatinib] (first compound 0.2 µM, partner dose 0.4 µM), for which the cell count came to 86.5% in the test on WM115; 87% in the test with WM1716; 62.3% in the test with WM1745; 82.6% in the test on WM3526; 106% in the test on WM3619; 93.4% in the test with WM451Lu.

Take `CS(=O)(=O)CCNCc1ccc(-c2ccc3ncnc(Nc4ccc(OCc5cccc(F)c5)c(Cl)c4)c3c2)o1` [lapatinib] + Nc1ccn([C@@H]2O[C@H](CO)[C@@H](O)C2(F)F)c(=O)n1 [gemcitabine] (first compound 0.8 µM, partner dose 0.0004 µM): the cell count in the test with WM115 was 81.8%; with WM1716 it was 108%; with WM1745, 89.7%; in the test on WM3526, 109%; in the test on WM3619 it was 101%; in the test on WM451Lu it was 94.7%.

For `C=CCNC1=C2C[C@@H](C)C[C@H](OC)[C@H](O)[C@@H](C)/C=C(\C)[C@H](OC(N)=O)[C@@H](OC)/C=C\C=C(/C)C(=O)NC(=CC1=O)C2=O` [Tanespimycin] + COc1ccc2c(c1)CCC1C2CCC2(C)C(NCCCCCCN3C(=O)C=CC3=O)CCC12 [U73122] (first compound 0.002 µM, partner dose 0.4 µM), the cell count was 89.9% in the test with WM115; 95% in the test on WM1716; 92.3% in the test with WM1745; 96.5% in the test on WM3526; 99.3% in the test with WM3619; 84% with WM451Lu.

For the compound `CN1CCN(c2ccc3nc(-c4c(N)c5c(F)cccc5[nH]c4=O)[nH]c3c2)CC1` [Dovitinib] + O=c1cc(-c2cccc3c2Sc2ccccc2S3)oc(N2CCOCC2)c1 [KU55933] (first compound 0.1 µM, partner dose 1 µM), the cell count with WM115 was 99.7%; in the test with WM1716, 116%; in the test with WM1745, 76.3%; in the test with WM3526, 95.5%; in the test on WM3619 it was 111%; in the test on WM451Lu it was 112%.

As to `CN1CCN(c2ccc3nc(-c4c(N)c5c(F)cccc5[nH]c4=O)[nH]c3c2)CC1` [Dovitinib] + NC(=O)Nc1cc(-c2cccc(F)c2)sc1C(=O)N[C@H]1CCCNC1 [AZD7762] (first compound 0.1 µM, partner dose 0.02 µM), the cell count worked out at 94.4% in the test with WM115; 106% in the test on WM1716; 91% in the test with WM1745; 100% in the test with WM3526; 76.6% with WM3619; 83% with WM451Lu.

On to `CN1CCN(c2ccc3nc(-c4c(N)c5c(F)cccc5[nH]c4=O)[nH]c3c2)CC1` [Dovitinib] + C=CCNC1=C2C[C@@H](C)C[C@H](OC)[C@H](O)[C@@H](C)/C=C(\C)[C@H](OC(N)=O)[C@@H](OC)/C=C\C=C(/C)C(=O)NC(=CC1=O)C2=O [Tanespimycin] (first compound 0.1 µM, partner dose 0.002 µM), for which the cell count came out at 103% in the test with WM115; 111% in the test with WM1716; 99.8% in the test with WM1745; 88.4% with WM3526; 89.8% with WM3619; 102% with WM451Lu.

For the compound `CNC(=O)c1cc(Oc2ccc(NC(=O)Nc3ccc(Cl)c(C(F)(F)F)c3)cc2)ccn1` [sorafenib] + c1cc(-c2cnn3cc(-c4ccc(OCCN5CCCCC5)cc4)cnc23)ccn1 [Dorsomorphin] (first compound 0.4 µM, partner dose 0.4 µM), the cell count in the test on WM115 came out at 97.6%; in the test on WM1716 it was 87.1%; with WM1745, 88.8%; in the test with WM3526, 95.6%; in the test with WM3619, 130%; with WM451Lu it was 108%.

As for `CS(=O)(=O)CCNCc1ccc(-c2ccc3ncnc(Nc4ccc(OCc5cccc(F)c5)c(Cl)c4)c3c2)o1` [lapatinib] + c1cc(-c2cnn3cc(-c4ccc(OCCN5CCCCC5)cc4)cnc23)ccn1 [Dorsomorphin] (first compound 0.8 µM, partner dose 0.4 µM), the cell count stood at 107% with WM115; 117% in the test on WM1716; 79.2% with WM1745; 102% in the test on WM3526; 109% in the test with WM3619; 117% in the test on WM451Lu.

For `CNC(=O)c1cc(Oc2ccc(NC(=O)Nc3ccc(Cl)c(C(F)(F)F)c3)cc2)ccn1` [sorafenib] + COc1ccc(-c2ccc3c(N4CCOCC4)nc(N4C[C@@H](C)O[C@@H](C)C4)nc3n2)cc1CO [KU0063794] (first compound 0.4 µM, partner dose 0.02 µM), the cell count came out at 92.7% with WM115; 95.5% with WM1716; 90.2% with WM1745; 92% in the test with WM3526; 96.9% in the test on WM3619; 89.7% in the test with WM451Lu.

For `CN1CCN(c2ccc3nc(-c4c(N)c5c(F)cccc5[nH]c4=O)[nH]c3c2)CC1` [Dovitinib] + C[C@]1(c2nc3c(C(N)=O)cccc3[nH]2)CCCN1 [Veliparib] (first compound 0.1 µM, partner dose 1.4 µM), the cell count in the test on WM115 came to 87.5%; with WM1716, 74.7%; in the test with WM1745, 72.6%; with WM3526 it was 82.5%; with WM3619 it was 108%; with WM451Lu, 84.5%.

On to `C[C@@H](Oc1cc(-c2cnn(C3CCNCC3)c2)cnc1N)c1c(Cl)ccc(F)c1Cl` [Crizotinib] + CC1(C)NC(=O)N(c2ccc([N+](=O)[O-])c(C(F)(F)F)c2)C1=O [nilutamide] (first compound 0.2 µM, partner dose 1 µM), for which the cell count in the test on WM115 was 85.5%; in the test with WM1716 it was 96.1%; in the test with WM1745, 108%; with WM3526, 88.2%; in the test on WM3619 it was 94.2%; with WM451Lu, 91.6%.

Regarding `C[C@@H](Oc1cc(-c2cnn(C3CCNCC3)c2)cnc1N)c1c(Cl)ccc(F)c1Cl` [Crizotinib] + CC(=O)c1c(C)c2cnc(Nc3ccc(N4CCNCC4)cn3)nc2n(C2CCCC2)c1=O [palbociclib] (first compound 0.2 µM, partner dose 0.04 µM), the cell count with WM115 came out at 76.8%; with WM1716 it was 70.4%; in the test with WM1745, 79%; in the test on WM3526, 52.4%; in the test with WM3619 it was 81%; in the test on WM451Lu, 76.1%.

With `CS(=O)(=O)CCNCc1ccc(-c2ccc3ncnc(Nc4ccc(OCc5cccc(F)c5)c(Cl)c4)c3c2)o1` [lapatinib] + C[C@]1(c2nc3c(C(N)=O)cccc3[nH]2)CCCN1 [Veliparib] (first compound 0.8 µM, partner dose 1.4 µM), the cell count in the test on WM115 is 86.9%; in the test with WM1716, 94.4%; in the test with WM1745, 76.3%; in the test on WM3526, 98.1%; in the test with WM3619, 104%; in the test on WM451Lu, 96.5%.
